The values below come from PMC12820563, “FoxP3 forms a head-to-head dimer in vivo and stabilizes its multimerization on adjacent microsatellites”.

The list shows a part of the results.

The target of the experiment is T1, MBP-FoxP1dN (Mus musculus, UniProt P58462 326-579).
T1 sequence: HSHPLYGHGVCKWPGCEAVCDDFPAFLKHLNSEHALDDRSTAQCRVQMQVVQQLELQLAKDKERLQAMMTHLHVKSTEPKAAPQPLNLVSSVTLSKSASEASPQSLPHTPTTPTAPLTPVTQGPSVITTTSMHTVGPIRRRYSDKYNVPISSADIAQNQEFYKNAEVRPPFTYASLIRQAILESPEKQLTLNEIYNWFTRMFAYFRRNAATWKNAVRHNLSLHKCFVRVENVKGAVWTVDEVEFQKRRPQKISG
Briefly: PD-seq (MBP pull-down with sequencing); 20 mM Tris-HCl pH 7.5, 100 mM NaCl, 1.5 mM MgCl2, 0.4 uM protein, 0.1 uM dsDNA library, 30 min, room temperature, amylose pull-down; high values mean tight binding. The settings on record: protein: recombinant; tags: His6-MBP; chain copies: 2; dsDNA, one strand shown. The method in brief: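 Binding is given as reads-per-million enrichment, pull-down over input, with replicates pooled. The bait was an N-terminus-lacking mouse FoxP3 or FoxP1 fragment with a His6-MBP tag, expressed in E. coli and used at 0.4 µM with 0.1 µM Klenow-filled degenerate double-stranded DNA library for 30 min at room temperature in Tris pH 7.5 buffer with NaCl and MgCl2. Amylose resin pull-down with three washes was followed by proteinase K release, PCR barcoding and Illumina sequencing.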
Turning to “GATGATTGTTCTCCCAGCTGATGAATTGTAGCTATCGAGTAAACAAATTTTCCTAATCTTTCTGTTCAAGCGCCATCTAC”, the binding signal is 1.13 RPM ratio (pull-down/input).
For “GATGATTGTTCTCCCAGCTGATGAATTGACTAACTCGAGTAAACAAATTTTCCTAATCTTTCTGTTCAAGCGCCATCTAC” the value was 1.11 RPM ratio (pull-down/input).
Regarding “GATGATTGTTCTCCCAGCTGATGAATTCAACCAATCGAGTAAACAAATTTTCCTAATCTTTCTGTTCAAGCGCCATCTAC”, the binding signal is 1.04 RPM ratio (pull-down/input).
The value for “GATGATTGTTCTCCCAGCTGATGAATTTAGCAGATCGAGTAAACAAATTTTCCTAATCTTTCTGTTCAAGCGCCATCTAC” was 0.929 RPM ratio (pull-down/input); that for “GATGATTGTTCTCCCAGCTGATGAATTTAGACATTCGAGTAAACAAATTTTCCTAATCTTTCTGTTCAAGCGCCATCTAC” was 1.1 RPM ratio (pull-down/input).
The value for “GATGATTGTTCTCCCAGCTGATGAATTCTTAGTTTCGAGTAAACAAATTTTCCTAATCTTTCTGTTCAAGCGCCATCTAC” was 0.891 RPM ratio (pull-down/input); that for “GATGATTGTTCTCCCAGCTGATGAATTAAAACCCTCGAGTAAACAAATTTTCCTAATCTTTCTGTTCAAGCGCCATCTAC” was 0.814 RPM ratio (pull-down/input).
The value for “GATGATTGTTCTCCCAGCTGATGAATTCCTAACTTCGAGTAAACAAATTTTCCTAATCTTTCTGTTCAAGCGCCATCTAC” was 0.799 RPM ratio (pull-down/input).
With “GATGATTGTTCTCCCAGCTGATGAATTTGTGGTATCGAGTAAACAAATTTTCCTAATCTTTCTGTTCAAGCGCCATCTAC”, the binding signal was 1.23 RPM ratio (pull-down/input).
The value for “GATGATTGTTCTCCCAGCTGATGAATTGCTATGGTCGAGTAAACAAATTTTCCTAATCTTTCTGTTCAAGCGCCATCTAC” was 1.02 RPM ratio (pull-down/input); that for “GATGATTGTTCTCCCAGCTGATGAATTGGGAACATCGAGTAAACAAATTTTCCTAATCTTTCTGTTCAAGCGCCATCTAC” was 0.954 RPM ratio (pull-down/input).
For “GATGATTGTTCTCCCAGCTGATGAATTCGGTTGATCGAGTAAACAAATTTTCCTAATCTTTCTGTTCAAGCGCCATCTAC” the value was 1 RPM ratio (pull-down/input); for “GATGATTGTTCTCCCAGCTGATGAATTTGGACCTTCGAGTAAACAAATTTTCCTAATCTTTCTGTTCAAGCGCCATCTAC”, 0.87 RPM ratio (pull-down/input); for “GATGATTGTTCTCCCAGCTGATGAATTTTGGCATTCGAGTAAACAAATTTTCCTAATCTTTCTGTTCAAGCGCCATCTAC”, 1.15 RPM ratio (pull-down/input).
For “GATGATTGTTCTCCCAGCTGATGAATTTACGTCATCGAGTAAACAAATTTTCCTAATCTTTCTGTTCAAGCGCCATCTAC” the value was 1.45 RPM ratio (pull-down/input); for “GATGATTGTTCTCCCAGCTGATGAATTCCTTCAGTCGAGTAAACAAATTTTCCTAATCTTTCTGTTCAAGCGCCATCTAC”, 0.852 RPM ratio (pull-down/input); for “GATGATTGTTCTCCCAGCTGATGAATTTTTTTGGTCGAGTAAACAAATTTTCCTAATCTTTCTGTTCAAGCGCCATCTAC”, 0.952 RPM ratio (pull-down/input).
Regarding “GATGATTGTTCTCCCAGCTGATGAATTCACTGTCTCGAGTAAACAAATTTTCCTAATCTTTCTGTTCAAGCGCCATCTAC”, the binding signal was 0.888 RPM ratio (pull-down/input).
For “GATGATTGTTCTCCCAGCTGATGAATTAGCACGCTCGAGTAAACAAATTTTCCTAATCTTTCTGTTCAAGCGCCATCTAC” the value was 0.971 RPM ratio (pull-down/input); for “GATGATTGTTCTCCCAGCTGATGAATTCAGCGGGTCGAGTAAACAAATTTTCCTAATCTTTCTGTTCAAGCGCCATCTAC”, 0.773 RPM ratio (pull-down/input).
The value for “GATGATTGTTCTCCCAGCTGATGAATTGTAGATGTCGAGTAAACAAATTTTCCTAATCTTTCTGTTCAAGCGCCATCTAC” was 0.992 RPM ratio (pull-down/input).
For “GATGATTGTTCTCCCAGCTGATGAATTAGCATTTTCGAGTAAACAAATTTTCCTAATCTTTCTGTTCAAGCGCCATCTAC” the value was 1.41 RPM ratio (pull-down/input).
Regarding “GATGATTGTTCTCCCAGCTGATGAATTCTCTTATTCGAGTAAACAAATTTTCCTAATCTTTCTGTTCAAGCGCCATCTAC”, the binding signal is 0.995 RPM ratio (pull-down/input).
The value for “GATGATTGTTCTCCCAGCTGATGAATTCTTGCGATCGAGTAAACAAATTTTCCTAATCTTTCTGTTCAAGCGCCATCTAC” was 0.969 RPM ratio (pull-down/input).
For “GATGATTGTTCTCCCAGCTGATGAATTCCCAGCTTCGAGTAAACAAATTTTCCTAATCTTTCTGTTCAAGCGCCATCTAC” the value was 0.873 RPM ratio (pull-down/input); for “GATGATTGTTCTCCCAGCTGATGAATTTGCTAGGTCGAGTAAACAAATTTTCCTAATCTTTCTGTTCAAGCGCCATCTAC”, 0.869 RPM ratio (pull-down/input).
The value for “GATGATTGTTCTCCCAGCTGATGAATTGTGGTTATCGAGTAAACAAATTTTCCTAATCTTTCTGTTCAAGCGCCATCTAC” was 1.27 RPM ratio (pull-down/input); that for “GATGATTGTTCTCCCAGCTGATGAATTGGCATGGTCGAGTAAACAAATTTTCCTAATCTTTCTGTTCAAGCGCCATCTAC” was 0.844 RPM ratio (pull-down/input).
Regarding “GATGATTGTTCTCCCAGCTGATGAATTGAGCGATTCGAGTAAACAAATTTTCCTAATCTTTCTGTTCAAGCGCCATCTAC”, the binding signal is 0.894 RPM ratio (pull-down/input).
The value for “GATGATTGTTCTCCCAGCTGATGAATTCCCGAACTCGAGTAAACAAATTTTCCTAATCTTTCTGTTCAAGCGCCATCTAC” was 0.756 RPM ratio (pull-down/input); that for “GATGATTGTTCTCCCAGCTGATGAATTACCCGCGTCGAGTAAACAAATTTTCCTAATCTTTCTGTTCAAGCGCCATCTAC” was 0.941 RPM ratio (pull-down/input).
